Source: the supplement of paper PMC4723716
± gives the uncertainty stated by the source. Whole data set: some 9,900 compounds, median “viability index relative to DMSO control” near 1, cut for the lowest 2% near 0.85. This is one part of the list.

What follows are molecules tested on Plasmodium falciparum NF54 stage V gametocytes (assay: viability index relative to DMSO control (fraction); higher = less gametocyte killing). Conditions: 2.5 µM, library set: Broad Institute DOS, incubation time: 72 h.
Procedure, shortened: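 Gametocytes (P. falciparum NF54, stage V) were treated with compound at 2.5 µM for 72 hr at 37°C in low oxygen, in serum-free medium at 0.75% gametocytemia and 1.25% hematocrit. Counts of 20–70 µm2 red particles, taken from one field per well after MitoTracker Red CMXRos with saponin, were divided by the plate mean of solvent-only wells. This ratio is the viability index.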

Question: `C[C@@H]1CN([C@H](C)CO)C(=O)c2cc(NC(=O)Cn3cnnn3)ccc2O[C@H]1CN(C)Cc1ccc(C(=O)Nc2ccccc2N)cc1` was tested. Which viability index did it give?
Answer: 1.11 ± 0.014

Question: How did the viability index turn out when `CCNC(=O)[C@@H]1[C@@H](CO)[C@@H]2Cn3c(ccc(/C=C/c4ccccc4)c3=O)[C@H]1N2C(=O)c1ccncc1` was run?
Answer: 1.059 ± 0.0075

Question: With `CCS(=O)(=O)N1CC(=O)N2[C@H](CO)[C@@H](c3ccc(C#CC4CCCCC4)cc3)[C@@H]2C1` as the molecule, how does the viability index read?
Answer: 1.07 ± 0.043

Question: With `C[C@H](NC(=O)[C@@H]1[C@@H](CO)[C@@H]2Cn3c(cccc3=O)[C@H]1N2C(=O)C1CCC1)c1ccccc1` as the molecule, how does the viability index read?
Answer: 1.12 ± 0.028

Question: For `COC(=O)C[C@@H]1CC[C@H]2[C@@H](COc3ccc(NS(=O)(=O)c4ccc(C)cc4)cc3C(=O)N2C)O1`, which viability index is on record?
Answer: 1.07 ± 0.083

Question: Which viability index does the source give for `COc1ccc(S(=O)(=O)Nc2ccc3c(c2)[C@H]2C[C@H](CC(=O)N(C)C)O[C@@H](CO)[C@H]2O3)cc1` here?
Answer: 1.11 ± 0.014

Question: `COc1ccc(S(=O)(=O)N(C)C[C@H]2Oc3ccc(NC(=O)Cc4cn(C)c5ccccc45)cc3C(=O)N([C@@H](C)CO)C[C@H]2C)cc1` was tested. Which viability index did it give?
Answer: 0.989 ± 0.086

Question: `CS(=O)(=O)N1C[C@H](O)COC[C@H]2O[C@@H](CC(=O)NCc3ccccc3)CC[C@@H]21` was tested. Which viability index did it give?
Answer: 1.1 ± 0.096

Question: With `COCC(=O)Nc1ccc2c(c1)[C@@H]1C[C@H](CC(=O)N3CCOCC3)O[C@@H](CO)[C@@H]1O2` as the molecule, how does the viability index read?
Answer: 1.158 ± 0.0067

Question: `CS(=O)(=O)N1[C@H](CO)[C@@H](c2ccc(C#Cc3cccc(F)c3)cc2)[C@@H]1C#N` was tested. Which viability index did it give?
Answer: 1.02 ± 0.017

Question: Which viability index does the source give for `N#Cc1cccc(-c2ccc([C@@H]3[C@H]4CN(Cc5ccccc5F)CCCCN4[C@H]3CO)cc2)c1` here?
Answer: 0.968 ± 0.025

Question: Which viability index does the source give for `Cc1noc(C)c1NC(=O)Nc1ccc2c(c1)C(=O)N(C)[C@H]1CC[C@@H](CC(=O)N[C@H]3CCN(Cc4ccccc4)C3)O[C@@H]1CO2` here?
Answer: 1.13 ± 0.09

Question: Which viability index does the source give for `CN(C[C@H]1[C@@H](c2ccccc2)[C@@H](CO)N1Cc1ccccn1)S(C)(=O)=O` here?
Answer: 1.02 ± 0.058

Question: With `COc1ccc(NC(=O)Nc2cccc3c2O[C@@H](CN(C)Cc2ccc(C(=O)O)cc2)[C@H](C)CN([C@@H](C)CO)C3=O)cc1` as the molecule, how does the viability index read?
Answer: 0.978 ± 0.065

Question: Which viability index does the source give for `COc1cccc(-c2ccc([C@H]3[C@H]4CNC[C@@H]3N4Cc3nccs3)cc2)c1` here?
Answer: 1.13 ± 0.065

Question: How did the viability index turn out when `O=C(NCc1cccc(F)c1)[C@H]1[C@H](CO)[C@H]2Cn3c(ccc(-c4ccncc4)c3=O)[C@@H]1N2CC1CC1` was run?
Answer: 1.07 ± 0.033

Question: `O=C(O)C[C@@H]1C=C[C@@H](NC(=O)Nc2cc(F)ccc2F)[C@@H](CO)O1` was tested. Which viability index did it give?
Answer: 1.056 ± 0.0094

Question: `N#C[C@@H]1[C@H](c2ccccc2C2=CCCC2)[C@@H](CO)N1C(=O)Cc1ccncc1` was tested. Which viability index did it give?
Answer: 1.16 ± 0.099

Question: `C[C@@H]1CCCCO[C@H](CN(C)C(=O)Nc2ccccc2)[C@H](C)CN([C@@H](C)CO)C(=O)c2cc(NC(=O)Nc3ccccc3)ccc2O1` was tested. Which viability index did it give?
Answer: 1.05 ± 0.054

Question: How did the viability index turn out when `C[C@H](CO)N1C[C@H](C)[C@@H](CN(C)Cc2ccc3cccnc3c2)OCc2cnnn2CCCC1=O` was run?
Answer: 1.07 ± 0.014

Question: For `C[C@H](CO)N1C[C@H](C)[C@@H](CN(C)S(=O)(=O)c2ccc(Oc3ccccc3)nc2)OCc2cnnn2CCCC1=O`, which viability index is on record?
Answer: 1.04 ± 0.038

Question: `C[C@H]1CC(=O)N[C@@H](c2ccccc2)C/C=C\C[C@H](c2ccccc2)NC1=O` was tested. Which viability index did it give?
Answer: 1.014 ± 0.0056

Question: How did the viability index turn out when `O=C(c1ccccn1)N1CC[C@H]2[C@H](CO)Nc3ccc(Br)cc3[C@H]21` was run?
Answer: 1.14 ± 0.023

Question: How did the viability index turn out when `CO[C@@H]1CN(C)C(=O)c2cc(NC(C)=O)ccc2OC[C@@H](C)N(S(C)(=O)=O)C[C@H]1C` was run?
Answer: 1.02 ± 0.046

Question: How did the viability index turn out when `C[C@@H]1CCCCO[C@H](CN(C)Cc2ccc(C(=O)O)cc2)[C@@H](C)CN([C@H](C)CO)C(=O)c2cc(N(C)C)ccc2O1` was run?
Answer: 1.144 ± 0.0068

Question: Which viability index does the source give for `CCC(=O)N1[C@H](CO)[C@@H](c2ccccc2)C12CN(C(=O)c1ccncc1)C2` here?
Answer: 1.09 ± 0.069

Question: `O=C(Nc1ccccc1)N1C[C@@H]2N[C@H](C1)[C@@H]2c1ccc(-c2cccnc2)cc1` was tested. Which viability index did it give?
Answer: 1.11 ± 0.056

Question: Which viability index does the source give for `CN1CCN(C(=O)[C@@H]2[C@@H](CO)[C@@H]3Cn4c(cccc4=O)[C@@H]3N2Cc2cc(F)ccc2F)CC1` here?
Answer: 0.957 ± 0.0097

Question: For `C[C@@H](NC(=O)C[C@@H]1C[C@@H]2c3cc(NS(=O)(=O)c4ccc(F)cc4)ccc3O[C@@H]2[C@@H](CO)O1)c1ccccc1`, which viability index is on record?
Answer: 1.09 ± 0.052

Question: Which viability index does the source give for `CCCC(=O)N1CC[C@@]2(CC1)CN([C@@H](CO)c1[nH]c3cc(OC)ccc3c21)C(=O)Cc1ccccn1` here?
Answer: 0.947 ± 0.12

Question: With `Cc1noc(C)c1S(=O)(=O)N(C)C[C@@H]1OCCCC[C@H](C)Oc2ccc(NC(=O)CCC(F)(F)F)cc2C(=O)N([C@H](C)CO)C[C@H]1C` as the molecule, how does the viability index read?
Answer: 0.984 ± 0.041

Question: With `COc1ccccc1S(=O)(=O)N1CC[C@H]2[C@H](CO)Nc3ccc(-c4ccc(C#N)cc4)cc3[C@H]21` as the molecule, how does the viability index read?
Answer: 1.02 ± 0.077

Question: Which viability index does the source give for `Cc1noc(C)c1C(=O)N(C)C[C@@H]1OCc2ccccc2-c2ccccc2C(=O)N([C@@H](C)CO)C[C@H]1C` here?
Answer: 1.01 ± 0.054

Question: `COc1ccc2c3c([C@@H](CO)N(C[C@]33CCN(CC3)C(=O)c3ccccc3)C(=O)c3ccccc3)n(C)c2c1` was tested. Which viability index did it give?
Answer: 0.761 ± 0.011

Question: `O=C(C1CCCC1)N1CC2(C1)[C@H](c1ccccc1)[C@@H](CO)N2Cc1ccc(Cl)cc1` was tested. Which viability index did it give?
Answer: 1.05 ± 0.024

Question: Which viability index does the source give for `O=C(Cc1cccnc1)N1CC2(C1)[C@@H](c1ccccc1)[C@H](CO)N2C(=O)C1CCOCC1` here?
Answer: 1.12 ± 0.05

Question: For `C[C@H](NC(=O)C[C@@H]1C=C[C@H](NS(=O)(=O)c2cccc(F)c2)[C@@H](CO)O1)c1ccccc1`, which viability index is on record?
Answer: 1.13 ± 0.08

Question: `Cc1noc(C)c1S(=O)(=O)Nc1ccc2c(c1)C(=O)N([C@H](C)CO)C[C@@H](C)[C@@H](CN(C)Cc1ccc(C(=O)O)cc1)OCCCC[C@H](C)O2` was tested. Which viability index did it give?
Answer: 1.125 ± 0.0076

Question: For `C[C@@H]1CN([C@H](C)CO)C(=O)CCCn2nncc2CO[C@H]1CN(C)C(=O)Nc1ccnc(N2CCOCC2)c1`, which viability index is on record?
Answer: 0.94 ± 0.061

Question: `CCC(=O)N1[C@H](CO)[C@H](c2ccc(-c3cncnc3)cc2)[C@@H]1CN(C)C(C)=O` was tested. Which viability index did it give?
Answer: 0.994 ± 0.065

Question: `C[C@@H]1CN([C@@H](C)CO)C(=O)c2ccccc2-c2ccccc2CO[C@H]1CN(C)C(=O)NC1CCCCC1` was tested. Which viability index did it give?
Answer: 0.9751 ± 0.0056

Question: Which viability index does the source give for `CO[C@@H]1CN(C)C(=O)c2ccc(NC(=O)C3CC3)cc2OC[C@@H](C)N(C(C)=O)C[C@H]1C` here?
Answer: 1.06 ± 0.022

Question: How did the viability index turn out when `CO[C@@H]1CC[C@@H]2CCOc3c(C#N)cccc3C(=O)N(C)C[C@@H](OC)[C@@H](C)C(=O)N(C)C[C@H]1O2` was run?
Answer: 1.03 ± 0.013

Question: With `CCCNC(=O)N1C[C@@]2(C1)CN([C@H](CO)c1[nH]c3cc(OC)ccc3c21)C(=O)CN1CCOCC1` as the molecule, how does the viability index read?
Answer: 0.983 ± 0.057
